Measured values from PubChem BioAssay AID1347120 (National Center for Advancing Translational Sciences (NCATS), 2019).
The campaign covered roughly 390,000 compounds. About 930 (0.24%) were called active. Inconclusive results, whose numbers are uncertain, are shown with a selection of clear calls. Calls follow the shape of the dose curve; as a rule, active = well fitted activation curve with a large enough effect; inconclusive = small, poorly fitted or top-dose-only effect; inactive = no such curve, though single readings can be large or run the other way. Potencies beside an inconclusive call are fits to weak or partial responses and may not hold up.

Assay: qHTS for Suppressors of FUS Proteinopathy: Primary screen using FUS-linked yeast assay; also: nearly all actives have a fitted effect of over 55% in size;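 as to growth rescue (activation): plate controls were DMSO vehicle for no effect and reference control for full effect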
Conditions: S. cerevisiae FUS-expressing, OD600, 24 h; Potency: growth rescue; growth rescue (activation): at 76.6 µM (top of the series)
How it was run: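 Absorbance at 600 nm, taken 24hr after compound addition, measured rescue of FUS-yeast growth at 30C. Induction used 2% galactose with seeding at OD 0.005. Controls: CP55940 from 92uM final, DMSO only.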
Potency is read from the fitted curve at half-maximal effect; tags tell the direction and shape of the fitted curve.

SMILES | growth rescue (activation) | Potency
CCn1c(SCC(=O)Nc2ccc(C(N)=O)cc2)nc2sc(C)c(C)c2c1=O | inactive: 2.13% | –
Cc1nnc(SCCCN2C(=O)c3ccccc3C2=O)o1 | – | inconclusive: 50.1 µM [activator, single point]
O=C(N/N=C/c1ccc(O)cc1)c1csc2ccccc12 | inactive: 15% | –
O=C(N/N=C/c1ccc(Cl)cc1)Nc1ccccc1 | inactive: 30.4% | –
CCOC(=O)c1sc2ccccc2c1S(=O)(=O)Nc1ccc(N(C)C)cc1 | – | inconclusive: 11.2 µM [activator, partial curve, poor fit]
C=CCC[C@@H](Cc1ccc(F)cc1)C(=O)OC[C@H](Cc1c[nH]c2ccccc12)NC(=O)[C@H](CC=C)CC(=O)NCCO | – | inconclusive: 20 µM [activator, partial curve, poor fit]
O=C(CSc1nnc(Cc2ccccc2)n1-c1cccc(Cl)c1)N1CCOCC1 | inactive: 26.3% | –
COC(=O)[C@@]1(Cc2ccc(F)cc2)[C@H]2c3cc(C(=O)N4CCCC4)n(CCSCCO)c3C[C@H]2CN1C(=O)c1ccccc1 | – | inconclusive: 28.2 µM [activator, partial curve, poor fit]
Cc1ccc(NC(=O)C(C)c2ccc([N+](=O)[O-])cc2)cc1Cl (stereo unspecified) | inactive: 1.47% | –
COc1ccccc1CCNC(=O)c1ccc2c(c1)c(C)c(C)n2C | – | inconclusive: 39.8 µM [activator, single point]
COc1ccccc1-c1nc(-c2ccc(Br)cc2)no1 | inactive: -6.97% | –
COC(=O)C1CN(Cc2ccccc2)CCS(=O)(=O)N1Cc1cn(Cc2ccccc2Br)nn1 (stereo unspecified) | – | active: 14.1 µM
Cc1csc2nc(O)c(C(=O)NCc3ccc4c(c3)OCO4)c(=O)n12 | – | inconclusive: 28.2 µM [activator, partial curve, poor fit]
CCCc1cc(=O)oc2c3c(cc(OCC(=O)N4CCC[C@H]4C(=O)O)c12)OC(C)(C)CC3 | inactive: 15.4% | –
O=C1ON=C(c2ccccc2[N+](=O)[O-])/C1=C/c1cccc([N+](=O)[O-])c1O | inactive: 3.62% | –
CCn1cc[n+](C)c1P(c1ccccc1)c1ccccc1 | inactive: -16.8% | –
CC(C)(C)c1ccc(-c2cc(-c3ccccc3O)[nH]n2)cc1 | inactive: 5.88% | –
CCc1cc(C(=O)Cc2nc3ccccc3[nH]2)c(O)cc1O | – | inconclusive: 50.1 µM [activator, single point]
Cn1c(NCc2ccncc2)nc2cc(-c3ccsc3)sc2c1=O | inactive: -13.1% | –
O=C(NC1CCCCC1)C(c1ccccc1F)N(Cc1ccco1)C(=O)Cn1nnc2ccccc21 (stereo unspecified) | inactive: 7.91% | –
CN(Cc1ccccc1)C(=O)c1ccc(NC(=O)Cc2ccc(NC(=O)C3CCN(C(=O)C4CCCCC4)CC3)cc2)cc1 | – | inconclusive: 50.1 µM [activator, single point]
Cc1cc(C)cc(-n2cnc3cc(C(=O)NCCc4ccccc4)ccc32)c1 | – | inconclusive: 35.5 µM [activator, single point]

SMILES | growth rescue (activation) | Potency
COc1ccc(CCNC(=O)c2ccc3c(c2)N(Cc2cccc(C)c2)C(=O)c2ccccc2S3(=O)=O)cc1OC | – | inconclusive: 17.8 µM [activator, partial curve, poor fit]
COc1cc(CNc2ccc3c(c2)CCC3)cc(OC)c1O | inactive: 17.7% | –
CCCCCc1ccc(OCCCC[n+]2ccc(C)cc2)c(CCCCC)c1 | – | inconclusive: 8.91 µM [activator, partial curve, poor fit]
COc1ccc2nc(N(Cc3cccnc3)C(=O)CCc3ccccc3)sc2c1 | inactive: 42.8% | –
COc1ccccc1Nc1c2c(nc3ccc(NC(=O)/C=C/c4cccc(OC)c4OC)cc13)CCCC2 | – | inconclusive: 8.91 µM [activator, partial curve, poor fit]
Cc1ccc(Nc2c3c(nc4nncn24)CCC3)cc1 | inactive: -3.76% | –
C=CCn1c(SCC(=O)Nc2sc3c(c2C#N)CCC3)nnc1C1COc2ccccc2O1 (stereo unspecified) | – | inconclusive: 25.1 µM [activator, single point]
COc1ccccc1NC(=O)CSc1nnc(-c2cccc(Cl)c2)o1 | inactive: 37.9% | –
COc1cc(C(=O)Nc2cccc(NC(=O)c3cccs3)c2)cc(OC)c1OC | – | inconclusive: 39.8 µM [activator, single point]
COc1ccc(CC(=O)Nc2ccc3nc(Nc4cccc(Cl)c4)cc(C)c3c2)cc1OC | – | inconclusive: 35.5 µM [activator, single point]
Cc1cc(C(=O)N/N=C/c2ccc([N+](=O)[O-])s2)c2ccccc2n1 | inactive: 15.1% | –
Cc1ccc(-c2cc(C(=O)NN=Cc3ccc(-c4ccccc4)cc3)[nH]n2)cc1 | inactive: -1.04% | –
COc1ccc(-c2c(C)nn3c(C)cc(C)nc23)cc1 | inactive: 0.78% | –
COc1ccccc1-n1cc(-c2ccc(C)cc2)nc1S(=O)(=O)CC(=O)Nc1ccccc1C(F)(F)F | – | inconclusive: 50.1 µM [activator, single point]
Cc1ccc([C@H]2N[C@]3(CCCN(CC4CCCCC4)C3=O)[C@H]3C(=O)N(Cc4ccccc4)C(=O)[C@@H]23)cc1 | – | inconclusive: 35.5 µM [activator, single point]
CCN(CC)C(=O)C1=C(C)N(Cc2ccc(C(C)(C)C)cc2)C(=O)C(CC(=O)NC(c2ccccc2)c2ccccc2)C1 (stereo unspecified) | – | inconclusive: 28.2 µM [activator, single point]
COC(=O)[C@]12CCCCC=C1N(CCc1ccc(OC)c(OC)c1)C(=O)[C@H](CC(=O)N1CCSCC1)C2 | – | inconclusive: 7.08 µM [activator, partial curve]
CCOC(=O)CCC(=O)Nc1ncnc2c1C(c1ccccc1)c1c(ccc3ccccc13)O2 (stereo unspecified) | – | inconclusive: 35.5 µM [activator, single point]
COC1=C[C@H](C(=O)NCCOC(C)=O)[C@H](C)[C@@H](c2ccccc2)CC1=O | inactive: -8.03% | –
O=C(C1=C(O)C(=O)N(c2ncccn2)C1c1ccc(Cl)c(Cl)c1)c1ccco1 (stereo unspecified) | – | inconclusive: 22.4 µM [activator, partial curve, poor fit]
COc1ccc(NC(=O)c2cc3cc(OC)ccc3oc2=O)cc1 | inactive: -42.4% | –
CC(C)CCNC(=O)C(c1ccco1)N(Cc1ccc(F)cc1)C(=O)c1snc(C(N)=O)c1N (stereo unspecified) | – | inconclusive: 56.2 µM [activator, single point]

SMILES | growth rescue (activation) | Potency
COc1ccc2nc3c(cc2c1)c(NC(=O)c1cccs1)nn3CC(C)C | – | inconclusive: 3.55 µM [activator, full curve]
CCOc1cc(C(N)=O)cc(Br)c1OC | inactive: 12.1% | –
COc1ccc(C2C(C(=O)N3CCN(c4ccccc4C)CC3)CC(=O)N2c2ccc(OC)cc2)cc1 (stereo unspecified) | – | inconclusive: 11.2 µM [activator, partial curve, poor fit]
CCN(CC)S(=O)(=O)c1ccc(Cl)c(C(=O)Nc2cc(C)nn2-c2ccccc2)c1 | – | inconclusive: 11.2 µM [activator, single point]
O=C(/C=C/c1ccc(Br)cc1)c1ccc(NC(=O)c2ccco2)cc1 | inactive: 17.2% | –
C#CCN(C[C@@H]1[C@@H](OC(=O)NCc2ccc(OC)c(OC)c2)[C@@H](OC(=O)NCc2ccc(OC)c(OC)c2)Cn2c(=O)ccc(=O)n21)S(=O)(=O)c1ccc(C)cc1 | – | inconclusive: 31.6 µM [activator, single point]
O=C(NC1CCCC1)c1cc(-c2ccccc2)nc2ccccc12 | inactive: 1.29% | –
COc1cccc(N(C(=O)c2snc(C(N)=O)c2N)C(C(=O)NCC2CCCO2)c2cccs2)c1 (stereo unspecified) | – | inconclusive: 31.6 µM [activator, single point]
Cc1ccccc1-c1cc(C(=O)NCc2cccs2)nn1CC1CC(c2cccc([N+](=O)[O-])c2)=NO1 (stereo unspecified) | – | inconclusive: 11.2 µM [activator, partial curve]
CCCCCOCC1CC(C/C(C)=N/Nc2nc(-c3ccccc3)cs2)C(=O)O1 (stereo unspecified) | – | inconclusive: 20 µM [activator, partial curve, poor fit]
Cc1ccc(NC(=O)CN2C(=O)S/C(=C\c3cc(C)n(-c4ccc(C(=O)O)cc4)c3C)C2=O)cc1 | – | inconclusive: 3.55 µM [activator, full curve]
CCn1c(CCNC(=O)c2cccs2)nnc1SCC(=O)Nc1nc(-c2ccccc2)cs1 | – | inconclusive: 14.1 µM [activator, partial curve, poor fit]
COc1ccc2oc(C(F)(F)C(F)F)cc(=O)c2c1 | – | inconclusive: 50.1 µM [activator, single point]
Cc1csc2nc(COC(=O)c3ccc(NC(=O)COc4ccccc4F)cc3)cc(=O)n12 | – | inconclusive: 44.7 µM [activator, single point]
CSc1nc2ccccc2n1Cc1cccc([N+](=O)[O-])c1 | inactive: -2.8% | –
COc1ccccc1CNC(=O)C(=O)NCC(c1cccs1)S(=O)(=O)c1ccc(F)cc1 (stereo unspecified) | – | active: 28.2 µM
Cc1cc(=O)c2cc(C(=O)c3ccccc3)ccc2[nH]1 | inactive: -14.6% | –
COc1ccc(N2CCN(C(=O)CCc3nnc4ccc(N5CCC(C)CC5)nn34)CC2)cc1 | – | inconclusive: 6.31 µM [activator, full curve]
CCc1ccc(NC(=O)CC2C(=O)N(c3cccc(C)c3)C(=O)N2Cc2cccs2)cc1 (stereo unspecified) | – | inconclusive: 31.6 µM [activator, single point]
CCC/C=C/c1ccc(CN2C(C(C)C)C(=O)N(Cc3cn(CCC4OCCO4)nn3)CCS2(=O)=O)cc1 (stereo unspecified) | – | inconclusive: 44.7 µM [activator, single point]
CCCCn1c(=O)n(-c2ccc(Br)cc2F)c(=O)c2c3c(sc21)CN(C(C)=O)CC3 | inactive: 43.4% | –
Cc1ccc(-c2cc(C(=O)N3CC(C)CC(C)C3)c3ccccc3n2)o1 (stereo unspecified) | – | inconclusive: 20 µM [activator, partial curve, poor fit]
